US20220249679A1 (Mitsubishi Tanabe Pharma Corporation, priority 2018, published 2022)

Columns and labels:
[1] = system: ARH-77 cells (negative control cell line); assay: Cytotoxicity assay, ARH-77; type: cell-based; conditions: 5-day cytotoxicity assay, N=3
Method: (§1) A 5-day cytotoxicity assay was carried out (N=3) using the ‘high CD138’ expressing cell line (KMS 11), ‘medium CD138’ cell line (RT112), and negative control cell line (ARH77).

[2] = system: RT112 cells (medium CD138 cell line); assay: Cytotoxicity assay, RT112; type: cell-based
Method: as §1

[3] = system: CHO cells expressing human FGFR3b; conditions: FIG. 17B
[4] = system: HCC1806 cells (CD138/FGFR3 positive cell line); assay: In vitro toxicity assay, HCC1806; type: cell-based
MHHES-1 cells = assay: In vitro toxicity assay, MHHES-1; type: cell-based
[5] = system: KMS-11 cells (high CD138 expressing cell line); assay: Cytotoxicity assay, KMS-11; type: cell-based
Method: as §1

[6] = system: An3CA cells implanted in a mouse; assay: In vivo xenograft study, AN3CA; conditions: Nu/Nu mice, intravenous
Method: (§2) Briefly, immunodeficient female mice (strain:Nu/Nu) were inoculated subcutaneously with 5×10^6 An3CA or HCC1806 cells. Tumors were measured using digital calipers and the tumor volume was determined according to the formula 0.5236*L*W^2. […]

[7] = system: AN3CA cells (CD138/FGFR3 positive cell line); assay: In vitro toxicity assay, AN3CA; type: cell-based
HEC59 cells = assay: In vitro toxicity assay, HEC59; type: cell-based
8505C cells = assay: In vitro toxicity assay, 8505C; type: cell-based
[8] = system: HCC1806 cells implanted in a mouse; assay: In vivo xenograft study, HCC1806; conditions: Nu/Nu mice, intravenous
Method: as §2

untransfected CHO cells = assay: In vitro cytotoxicity, untransfected CHO cells; type: cell-based, Chinese Hamster; conditions: at concentrations less than 10000 pM, FIG. 17A
OE19 cells = assay: In vitro toxicity assay, OE19; type: cell-based
[9] = system: CHO cells expressing human FGFR3c; conditions: FIG. 17C

B1: hF6-S119C-HN-G7-II (conjugate)
heavy: GVTLFVALYDYEVYGPTPMLSFHKGEKFQILKGGSGPYWEARSLTTGETGLIPSNYVAPVDSIQGGGGSGGGGSGGGGSQVQLVQSGAEVVKPGASVKLSCKASGYTFTSYYLYWVKKAPGQGLDWIGEIYPRSGGTNINEKFLSRVTLTADTSTSTAYLELSSLTSEDTAVYYCTRSLLYWGQGTTLTVSSACTKGPSVFPLAPSSKSTSGGTAALGCLVKDYFPEPVTVSWNSGALTSGVHTFPAVLQSSGLYSLSSVVTVPSSSLGTQTYICNVNHKPSNTKVDKKV[letters of human IgG1 Fc left out]
light: DVVMTQTPLSLSVTPGQPASISCKSSQSLLASDGKTYLNWLLQRPGQSPKRLIYLVSKLDSGVPNRFSGSGSGTDFTLQISRVEAEDVGLYYCWQGAHFPFTFGSGTKLEIKRTVAAPSVFIFPPSDEQLKSGTASVVCLLNNFYPREAKVQWKVDNALQSGNSQESVTEQDSKDSTYSLSSTLTLSKADYEKHKVYACEVTHQGLSSPVTKSFNRGEC
[1]
  ARH-77 % max kill: 98.1%
  IC50: 3.3 nM
[2]; 5-day cytotoxicity assay, N=3
  IC50: 0.0353 nM
  RT112 % max kill: 99.7%
[2]; RT-112, Table 31
  % cell killing: 99.7%
  EC50: 0.0234 nM
[3]
  cytotoxicity to CHO cells expressing human FGFR3b: specific cytotoxicity
[4]
  % cell killing: 95.9%
  EC50: 3.81 nM
MHHES-1 cells
  % cell killing: 99.3%
  EC50: 1.37 nM
[5]; 5-day cytotoxicity assay, N=3
  IC50: 0.0279 nM
  KMS-11 % max kill: 99.6%
[5]; KMS-11, Table 31
  % cell killing: 99.6%
  EC50: 0.113 nM
[6]; 0.5 mg/kg
  % T/C: 44.6%
[6]; 1 mg/kg
  % T/C: 22.5%
[7]
  % cell killing: 97.3%
  EC50: 0.936 nM
HEC59 cells
  % cell killing: 91.7%
  EC50: 3.64 nM
8505C cells
  % cell killing: 96.1%
  EC50: 0.559 nM
[8]; 0.5 mg/kg
  % T/C: 8.3%
[8]; 1 mg/kg
  % T/C: 5.1%
Untransfected CHO cells
  killing of untransfected CHO cells: did not demonstrate specific killing
OE19 cells
  % cell killing: 70.3%
  EC50: 0.554 nM
[9]
  cytotoxicity to CHO cells expressing human FGFR3c: specific cytotoxicity
